Consider 47 compounds from PubChem BioAssay (NCI).

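Five compound concentrations were applied to cells in 96-well plates for 48 hours; endpoints were derived by simple linear interpolation of the resulting dose-response curve. Here, GI50 denotes the concentration required for 50% inhibition of growth. TGI: concentration producing complete growth inhibition.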

In the experiment the test system is NCI-H322M lung. The experiment in a line: NCI tumour cell line growth inhibition, 48 h.
Turning to `S=C1SCN(Cc2ccccc2)CN1Cc1ccccc1`, the GI50 was 18.2 µM and the TGI was over 71.7 µM.
For the compound `CC12C3CC4C5CC(C(C53)[C@@H]1NCc1ccccc1)C42` (some centres undefined), the TGI is over 100 µM.
Same read-out and setting: with `N#CC(C(=O)CCC(=O)Nc1cccc(C(F)(F)F)c1)c1ccccc1` (centres undefined) the figure was over 100 µM; with `O=C1NC(=S)NC(=O)C1=CC1CC1`, over 100 µM; with `[N-]=[N+]=Nc1c(-c2ccccc2)c(=O)n(-c2ccccc2)c2ccccc12`, over 100 µM.
`CCOC(=O)/C(=C\c1cn(C(C)=O)c2ccccc12)P(C)(=O)OCC` (centres undefined): the TGI is over 100 µM.
Still for that read-out and setting: with `Cc1ccc2nc(CN(CCO)CCO)cc(=O)n2c1` the figure was over 100 µM; with `CC(C)(CCl)NC(=O)c1cccc(C(=O)NC(C)(C)CCl)n1`, over 100 µM; with `Cc1ccc(N=C2OP(=O)(Nc3ccc(C)cc3)Oc3ccccc32)cc1` (centres undefined), over 100 µM.
Still for that read-out and setting: with `Cc1[nH]c2ccccc2c1C1=NO/C(=N\O)C(c2c(C)[nH]c3ccccc23)C1` (centres undefined) the figure was over 100 µM.
`CCc1cccc(NC(=O)Nc2ccc(Oc3ccc4nc(NC(=O)OC)[nH]c4c3)cc2)c1`: the GI50 is 12.6 µM and the TGI is over 25 µM.
On to `COc1ccc(C(=O)c2nc3ccccc3nc2N2CCN(c3ccccc3)CC2)cc1OC`, for which the TGI was over 100 µM.
Same read-out and setting: with `COc1ccc2nc3cc([N+](=O)[O-])ccc3c(Nc3ccc(S(=O)(=O)Nc4ncccn4)cc3)c2c1` the figure was over 100 µM.
Regarding `COc1ccc(-c2cc(-c3ccc(OC)cc3)nc(NCCCNc3ccnc4cc(Cl)ccc34)n2)cc1`, the GI50 was 1.95 µM and the TGI was found to be 4.37 µM.
In the case of `CCOC(=O)[C@@H](NC(=O)OC(C)(C)C)[C@@H](O)C(=O)OCC`, the TGI is over 100 µM.
The same measure, in the same setting: with `Cc1cc(C#N)c(Nc2ccc(F)cc2[N+](=O)[O-])s1` the figure was over 100 µM.
Same read-out and setting: to `CCO[C@H]1O[C@@H]2OC3(C)CCC4[C@H](C)CCC([C@H]1C)[C@]42OO3` (some centres undefined) belongs over 100 µM.
On the same count and under the same terms, with `O=C1CCC2(CC1CCS(=O)c1ccccc1)OCCO2` (centres undefined) the figure was over 100 µM.
Take `[Co].[O-]c1cccnc1C=Nc1ccccc1.[OH3+]`: the GI50 is over 100 µM and the TGI was over 100 µM.
As to `CCCCc1n(Cc2ccc3ccccc3n2)cc[n+]1Cc1ccc2ccccc2n1`, the GI50 was 3.6 µM and the TGI is 16.1 µM.
On the same counts, the results for `CC1=C2[C@@H](CC1)[C@]1(C)O[C@@](C(C)C)(C[C@H]1OC(=O)CO)[C@H]2OC(=O)CCCc1ccccc1` are 11.8 µM and 24 µM.
`COc1ccc2c(=O)c3c([nH]c2c1)OCC3=O` yielded a TGI of over 100 µM.
The same measure, in the same setting: to `CCOC(=O)c1c(-c2ccc(OC)c(O)c2)c(C#N)c(=S)n(C2OC(COC(C)=O)C(OC(C)=O)C(OC(C)=O)C2OC(C)=O)c1-c1ccccc1` (centres undefined) belongs over 100 µM; to `CO/C=C(\Br)c1ccc2c(c1)OCO2`, over 100 µM.
Same read-out and setting: to `OCCN(CCO)c1nc(N2CCCCC2)c2nc(N(CCO)CCO)nc(N3CCCCC3)c2n1` belongs over 100 µM.
With `O=c1cc(-c2ccccc2)oc2c1ccc1ccccc12`, the GI50 is 27.1 µM and the TGI is over 100 µM.
`CCc1cccc(C(C)CC)c1NC(=O)C(=O)Cc1nc2ccccc2o1` (centres undefined) gave a TGI of over 50 µM.
The same measure, in the same setting: with `Cn1c2ccccc2c2c3c(c4c5ccccc5n(C5OC(CO)C(O)C(O)C5O)c4c21)C(=O)OC3=O` (centres undefined) the figure was over 100 µM.
In the case of `COc1cc2c(cc1O)c(=O)n(CCN(C)C)c1c3cc4c(cc3ncc21)OCO4`, the GI50 was 0.0306 µM and the TGI was 1.47 µM.
The matching figures for `COc1ccc(C2CC(c3ccc(OC)cc3O)=NN2c2ccc(S(N)(=O)=O)cc2)cc1` (centres undefined): 13.7 µM and over 100 µM.
With `COc1ccccc1NC(=O)CC(=O)n1nc(C)c(N=Nc2ccccc2Cl)c1C`, the TGI was over 100 µM.
Regarding `CCOC(=O)c1c2c(n3ccc(NC(=O)CCN4CCCCC4)cc13)C(=O)c1ncccc1C2=O`, the GI50 is 1.11 µM and the TGI is 2.54 µM.
The compound `Cc1nn(C(=O)Cc2ccccc2)c2c1C(c1ccc([N+](=O)[O-])cc1)SC(N)=N2` (centres undefined) registered a TGI of over 100 µM.
`CSc1nc(-c2ccccc2)nc(C(C#N)C#N)n1` had a TGI of over 100 µM.
Take `O=C(CCCC(=O)N/N=C/c1cc(Cl)ccc1O)N/N=C\c1cc(Cl)ccc1O`: the GI50 was 4.5 µM and the TGI was over 100 µM.
Compound `Cc1cccc2c(NCCN(C)C)c3cccc(C(=O)NCCN(C)C)c3nc12` showed a TGI of 6 µM.
`CC(ON1[C@](C)(c2ccccc2)CC[C@@]1(C)c1ccccc1)c1ccccc1` (some centres undefined) displayed a TGI of over 100 µM.
For `O=C(c1ccccc1)C1OC1C(=O)c1ccccc1` (centres undefined), the GI50 was 17.1 µM and the TGI was over 100 µM.
The compound `O=C(c1ccccc1)N(CCCCNC(=O)C(F)(F)F)CCCNC(=O)C(F)(F)F` came in with a TGI of over 100 µM.
Same read-out and setting: with `CC1SC2=NC3=C(c4ccccc4C3=O)C(c3ccccc3Cl)N2C1=O` (centres undefined) the figure was over 100 µM; with `O=C(O)CCSC(=O)Nc1cccc2ccccc12`, over 100 µM; with `CC(C)=NOC(=O)OC[C@H]1O[C@@H](n2cnc3c(N)ncnc32)C(O)C1O` (some centres undefined), over 100 µM.
On the same count and under the same terms, with `COc1ccc(C(=O)CCN(C)C)c2ccccc12` the figure was over 100 µM; with `CCOC(=O)C(NC(=O)c1cccc(Cl)c1)(Nc1ccc(S(=O)(=O)Nc2cc(C)nc(C)n2)cc1)C(F)(F)F` (centres undefined), over 100 µM; with `C1=CC=C2NCCc3cccc(c3)CCNC3=CC=CC=CC3=NCCCCCCN=C2C=C1`, 49.5 µM.
Same read-out and setting: to `O=S1(=O)c2ccccc2N2C(c3ccccc3)=NOC2(c2ccccc2)CC1c1ccc(Br)cc1` (centres undefined) belongs over 100 µM; to `Cc1cccc(N=Cc2ccc(N(CCC#N)S(=O)(=O)c3ccccc3)cc2C)c1`, over 100 µM.
